Assay results taken from the RNAGym collection of RNA variant scans (doi:10.1073/pnas.2313332121).
Variants at the background level are over-represented here.

B1: TPR 5TU (parent)
chain: GGAUCUUCUCGAUCUAACAAAAAAGACAAAUCUGCCACAAAGCUUGAGAGCAUCUUCGGAUGCAGAGGCGGCAGCCUUCGGUGGCGCGAUAGCGCCAACGUUCUCAACUAUGACACGCAAAACGCGUGCUCCGUUGAAUGGAGUUUAUCAUG

Variants of: B1
Assay: polymerase ribozyme fitness, log enrichment relative to wild type (log ratio); higher = more active; in vitro selection for triplet polymerase activity
Outline: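 Frozen incubation at −7 °C formed the core of a single, triplicate in vitro selection round applied to PCR-built, transcribed mutant libraries of each subunit of a heterodimeric triplet polymerase ribozyme. Extended constructs were gel-excised, captured with streptavidin beads and amplified by RT-PCR, and input and output libraries were Illumina-sequenced with a filter of ≥10 input reads and ≥1 read per output. Fitness is the logarithm of genotype enrichment relative to wild-type enrichment, with inverse-variance-weighted replicate averaging, and the logarithm is base 2.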

Variant	polymerase ribozyme fitness (log ratio)
C35U A73C A91G U102G U139C G140U	≤ -4.2
C35U C54U G71U C87U U151C	≤ -4.2
A37C A91G A115C	≤ -4.2
C36U U53G U55C G58A G88A C99G	≤ -4.2
C36G C51U C54U C93G	≤ -4.2
A37C C75G C116G U134A	≤ -4.2
C35U G50C C108A	≤ -4.2
A37C A52G C57A G80C G84C A91G A115C G140C A142U	≤ -4.2
C35U U45A A47C C93A C103G C105A G117A G143C	≤ -4.2
C35U C95U C108G A110U U134C G143C	≤ -4.2
C35U A41C U56A C76U G88U C105U	≤ -4.2
C36G A39U U56A C57A C87U U148G	≤ -4.2
C36U A41C A47C C85U C93U C99A A110U A138U C149A	≤ -4.2
C35U G58U G74A G80U G83A C116G	≤ -4.2
C35U A91U G100A A115U	≤ -4.2
C35G C38U C69U G83U A110G U144A A150C	≤ -4.2
C36G U53A U55G A142U U144G	≤ -4.2
C36A A39C U55G A73U C93G A147C	≤ -4.2
C35U C54U C79U G141A	≤ -4.2
C36U G58U C76U C85U A121U U135C	≤ -4.2
A37C C93A C99A A110G	≤ -4.2

Variant	polymerase ribozyme fitness (log ratio)
C35G C75U G94U	≤ -4.2
C36A C57U A73C	≤ -4.2
C36A U82G U135C U145G G152U	-3.98
C35G U56G U148C	≤ -4.2
C36U U55A G94U C99G C108U C132U A142C	≤ -4.2
C36A A47U G83C C123U C131A	≤ -4.2
C36A A66G G88C U101G C116G	≤ -4.2
A37C C43A A107U	≤ -4.2
C35U C43U C85A A97C C108G C149G	≤ -4.2
C35U C63A	-0.573
C35G A52G G80U C85A A122U	≤ -4.2
C36A G86A A89C C96U U148G A150C	≤ -4.2
C35G C51U G65U G81A C87A A115G C125U	≤ -4.2
C35G C76A C96U A121G	≤ -4.2
C36U C69A A107G	≤ -4.2
C36A C85U A98G C125A	≤ -4.2
C36G C57G C72G C118U	≤ -4.2
C35G G94C C125G C131U A142G	≤ -4.2
C36U U55A A110U	≤ -4.2
A37C A40G G70C G88C	≤ -4.2
C36G G94U A98G G141A U146A	≤ -4.2

Variant	polymerase ribozyme fitness (log ratio)
C36U A64G G94A A110G	-4.2
C36U G46A A64G G80C	≤ -4.2
C35G U53G A64C C79G U109A A115U A142C	≤ -4.2
C35U A142G	-1.79
C35U A37C A47G G67U G126A	≤ -4.2
C36A G92A	-3.98
C35U U55G G81C G83C C93G	≤ -4.2
C35U U44G C85U C116G C123A	-3.89
A37C C76U G88C C103A U104G	≤ -4.2
C35U C57G G68U A119G G140C	≤ -4.2
C36G A60U G92A C114U G140C A147C	≤ -4.2
C36U A60C A89G U102A A120G	≤ -4.2
A37C A40G A52U A60G G70C G86U A119C	≤ -4.2
C35U A39C U56C C63U A110C A115G A121G G126A	≤ -4.2
C36A U56G G67C C93G G124A	≤ -4.2
C35U C85A C105A	≤ -4.2
C36A C93G C125A	≤ -4.2
C36A A119G	≤ -4.2
C35U G42C C76A C93A G117C	≤ -4.2
C35U U61A A113G	≤ -4.2
C36A A40U G59C G67A G71C A98G	≤ -4.2

Variant	polymerase ribozyme fitness (log ratio)
C36U C99U U139A	≤ -4.2
C36G C87A	≤ -4.2
C35G A39U U53A A73G C85G G140A	≤ -4.2
C35U A39U A66C C79A G124U G143U G152U	≤ -4.2
C36U G50A C95G C118U G133A	≤ -4.2
C36A C95U A97U G124U	≤ -4.2
C35U G92A C96G A98C	-3.23
C36A U127G G140A	≤ -4.2
C35G U53G A64C C79G U109A A115U G128C A142G	≤ -4.2
C36U A60G U61A A73U C85G G100U	≤ -4.2
C35U C72U U82G C96U A106G G112A	≤ -4.2
C35G C72A A106U U139A	≤ -4.2
C35G A49G G84U A110G C114U	≤ -4.2
C35G G71A C96G U139G	-3.91
C36A A37C C38A C95G C99U U146A	≤ -4.2
C36A U55A A106G C118A C132U	≤ -4.2
C35U G84U A89G C93G A115G C118U G143A	≤ -4.2
A37C G42A G58A A60G G84A A89C A98U A107C	≤ -4.2
C36A C75U C99U	≤ -4.2
C35U U82G C105G A106U G124C A137G U148G	≤ -4.2
